Assay results from patent publication US20220049236A1 (YEDA RESEARCH AND DEVELOPMENT, published 2022).

How the values were obtained:
[1] = target: T1, Heat shock protein HSP 90-beta (human, UniProt P08238); test: IP from HDF supernatant, LFQ mass spectrometry; ratio against Fc control
T1 construct: also called HSP90AB1

[2] = target: T2, Heat shock 70 kDa protein 1A/B (human, UniProt P0DMV9); test: as above
T2 construct: also called Heat shock 70 kDa protein 1B; HSPA1B

Filaggrin-2 [3] = target: T3, Filaggrin-2 (human, UniProt Q5D862 1-2391, limits assumed); test: as above
T3 construct: also called FLG2

[4] = target: T4, Heat shock cognate 71 kDa protein (human, UniProt P11142); test: as above
T4 construct: also called HSPA8

[5] = target: T5, Heat shock protein HSP 90-alpha (human, UniProt P07900 2-732); test: as above
T5 construct: also called HSP90AA1

Hornerin [6] = target: T6, Hornerin (human, UniProt Q86YZ3 1-2850, limits assumed); test: as above
T6 construct: also called HRNR

[7] = target: T7, 60 kDa heat shock protein, mitochondrial (human, UniProt P10809 27-573, limits assumed); test: as above
T7 construct: also called HSPD1; HSP60
T7 sequence (P10809 27-573 limits assumed): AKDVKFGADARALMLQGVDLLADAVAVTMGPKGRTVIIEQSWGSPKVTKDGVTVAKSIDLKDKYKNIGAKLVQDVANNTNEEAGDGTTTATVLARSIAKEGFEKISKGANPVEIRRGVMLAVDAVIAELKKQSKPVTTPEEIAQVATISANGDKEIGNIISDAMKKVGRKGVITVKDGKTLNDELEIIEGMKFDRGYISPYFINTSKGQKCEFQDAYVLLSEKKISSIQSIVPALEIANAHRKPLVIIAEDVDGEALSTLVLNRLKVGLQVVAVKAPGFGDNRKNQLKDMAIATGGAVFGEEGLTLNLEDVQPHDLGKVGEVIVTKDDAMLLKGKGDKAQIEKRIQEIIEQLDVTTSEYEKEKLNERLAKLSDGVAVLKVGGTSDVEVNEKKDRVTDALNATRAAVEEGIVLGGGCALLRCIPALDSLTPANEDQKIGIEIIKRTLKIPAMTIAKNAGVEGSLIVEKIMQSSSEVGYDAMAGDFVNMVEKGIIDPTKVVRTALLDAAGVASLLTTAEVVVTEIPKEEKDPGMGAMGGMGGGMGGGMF

[8] = target: T8, LOX catalytic domain (catalytic domain of human LOX, 169-417) (human, UniProt P28300 170-417); test: microscale thermophoresis, labelled LOX with rising concentration of Fc-LPD (Fnorm rises from about 850 to about 860 between 10^0 and 10^4 nM)
T8 construct: Expressed from pET28 in E. coli BL21 SHuffle, purified on HisTrap and labelled through its His tag for MST
T8 sequence: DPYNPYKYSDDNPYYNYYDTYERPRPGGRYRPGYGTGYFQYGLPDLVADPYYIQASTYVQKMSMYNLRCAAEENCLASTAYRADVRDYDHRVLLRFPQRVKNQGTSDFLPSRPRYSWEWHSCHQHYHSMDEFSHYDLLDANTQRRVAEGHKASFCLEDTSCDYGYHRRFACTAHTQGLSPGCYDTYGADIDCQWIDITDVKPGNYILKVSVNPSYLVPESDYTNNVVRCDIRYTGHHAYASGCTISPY

[9] = target: T1, Heat shock protein HSP 90-beta; test: IP from HDF supernatant, LFQ mass spectrometry; ratio against the glycosylation mutant
T1 sequence (P08238 2-724 limits assumed): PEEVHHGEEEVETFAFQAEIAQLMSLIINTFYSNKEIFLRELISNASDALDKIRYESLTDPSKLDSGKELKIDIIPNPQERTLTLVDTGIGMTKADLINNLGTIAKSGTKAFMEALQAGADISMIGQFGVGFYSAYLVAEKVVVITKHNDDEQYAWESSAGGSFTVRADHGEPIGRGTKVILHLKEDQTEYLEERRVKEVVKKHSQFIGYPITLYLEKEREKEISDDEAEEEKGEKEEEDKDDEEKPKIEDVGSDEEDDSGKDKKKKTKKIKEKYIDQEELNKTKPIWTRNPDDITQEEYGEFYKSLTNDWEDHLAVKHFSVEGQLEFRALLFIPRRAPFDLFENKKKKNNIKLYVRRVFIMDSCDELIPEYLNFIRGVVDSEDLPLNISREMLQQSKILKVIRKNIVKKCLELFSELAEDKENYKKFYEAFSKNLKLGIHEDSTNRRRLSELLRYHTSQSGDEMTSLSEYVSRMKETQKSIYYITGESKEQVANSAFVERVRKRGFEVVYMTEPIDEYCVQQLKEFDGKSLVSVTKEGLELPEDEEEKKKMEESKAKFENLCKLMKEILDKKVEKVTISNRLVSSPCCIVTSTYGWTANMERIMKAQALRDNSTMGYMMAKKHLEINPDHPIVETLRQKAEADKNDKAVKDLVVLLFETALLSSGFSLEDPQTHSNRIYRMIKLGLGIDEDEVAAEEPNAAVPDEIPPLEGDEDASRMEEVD
Experimental: (§1) Fc-LPD was coated on magnetic protein G beads (GE) according to manufacturer's instructions. The coated beads were incubated with concentrated supernatant from 10 cm² dish culture of HDF cells overnight on 4° C. Pellet beads were obtained by centrifuge (˜500 g for 5 min 4° C.) and the beads were washed with PBS of volume at least 5 times the initial beads volume. Then the beads pellet was placed in a collection column, which was inserted in an eppendorf tube containing 10 ul of 1M Tris-HCl pH 8. 90 ul of elution buffer (Thermo-Scientific) was added to the beads and after 5 min of incubation elution was performed by centrifuge. The last step was repeated four times.
(§2) Mass-spectrometry for identification gel bands from I.P of Fc-LPD The samples were eluted with 5% SDS and subjected to tryptic digestion using an S-trap. The resulting peptides were analyzed using nanoflow liquid chromatography (nanoAcquity) coupled to high resolution, high mass accuracy mass spectrometry (Q Exactive HFX). Each sample was processed with MaxQuant v1.6.0.16. The data was searched with the Andromeda search engine against the human proteome database appended with common lab protein contaminants and the following modifications: Carbamidomethylation of C as a fixed modification and oxidation of M and protein N-term acetylation as variable ones. The LFQ intensities (label free quantification) were calculated and used for further calculations using Perseus v1.6.07. Decoy hits were filtered out, as well as proteins that were identified on the basis of a modified peptide only. The LFQ intensities were log transformed and only proteins that had at least 2 valid values in at least one experimental group were kept. GO annotations were added.
(§3) The Fc-LPD has three glycosylation sites, in order to investigate the importance of glycosylation a new construct Fc-LPD-N346, 362, 409Q was created. These two proteins including the Fc (as control) were used to clarify the interactions of LPD with ECM proteins in the supernatant of HDF cells, as in Example 3. For this purpose, HDF cells were cultured in 60 cm² dishes for 3 days in 10 ml serum-free and phenol red-free medium. The medium was collected and concentrated using 10 kDa cutoff vivaspin filters and incubated with Fc, Fc-LPD and Fc-LPD-N346, 362, 409Q, which were pre-incubated in magnetic protein G beads.

[10] = target: T2, Heat shock 70 kDa protein 1A/B; test: as above
T2 sequence (P0DMV9 2-641 limits assumed): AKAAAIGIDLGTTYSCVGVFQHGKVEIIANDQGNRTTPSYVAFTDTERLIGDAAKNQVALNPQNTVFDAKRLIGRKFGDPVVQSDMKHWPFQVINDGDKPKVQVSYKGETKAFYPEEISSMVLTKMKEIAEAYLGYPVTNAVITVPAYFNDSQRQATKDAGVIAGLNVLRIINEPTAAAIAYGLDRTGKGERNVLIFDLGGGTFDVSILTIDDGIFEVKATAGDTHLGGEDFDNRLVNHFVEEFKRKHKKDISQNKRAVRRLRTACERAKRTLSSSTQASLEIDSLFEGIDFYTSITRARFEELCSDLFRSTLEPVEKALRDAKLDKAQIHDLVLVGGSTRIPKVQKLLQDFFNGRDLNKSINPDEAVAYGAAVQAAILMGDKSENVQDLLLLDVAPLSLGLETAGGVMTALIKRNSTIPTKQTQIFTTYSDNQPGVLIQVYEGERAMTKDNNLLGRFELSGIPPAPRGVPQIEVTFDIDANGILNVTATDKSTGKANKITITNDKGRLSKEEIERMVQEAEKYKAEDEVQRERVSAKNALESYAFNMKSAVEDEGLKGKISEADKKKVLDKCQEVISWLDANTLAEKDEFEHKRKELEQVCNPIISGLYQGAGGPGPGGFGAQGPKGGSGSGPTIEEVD
Experimental: as §1, §2, §3

Filaggrin-2 [11] = target: T3, Filaggrin-2; test: as above
T3 sequence (Q5D862 whole entry): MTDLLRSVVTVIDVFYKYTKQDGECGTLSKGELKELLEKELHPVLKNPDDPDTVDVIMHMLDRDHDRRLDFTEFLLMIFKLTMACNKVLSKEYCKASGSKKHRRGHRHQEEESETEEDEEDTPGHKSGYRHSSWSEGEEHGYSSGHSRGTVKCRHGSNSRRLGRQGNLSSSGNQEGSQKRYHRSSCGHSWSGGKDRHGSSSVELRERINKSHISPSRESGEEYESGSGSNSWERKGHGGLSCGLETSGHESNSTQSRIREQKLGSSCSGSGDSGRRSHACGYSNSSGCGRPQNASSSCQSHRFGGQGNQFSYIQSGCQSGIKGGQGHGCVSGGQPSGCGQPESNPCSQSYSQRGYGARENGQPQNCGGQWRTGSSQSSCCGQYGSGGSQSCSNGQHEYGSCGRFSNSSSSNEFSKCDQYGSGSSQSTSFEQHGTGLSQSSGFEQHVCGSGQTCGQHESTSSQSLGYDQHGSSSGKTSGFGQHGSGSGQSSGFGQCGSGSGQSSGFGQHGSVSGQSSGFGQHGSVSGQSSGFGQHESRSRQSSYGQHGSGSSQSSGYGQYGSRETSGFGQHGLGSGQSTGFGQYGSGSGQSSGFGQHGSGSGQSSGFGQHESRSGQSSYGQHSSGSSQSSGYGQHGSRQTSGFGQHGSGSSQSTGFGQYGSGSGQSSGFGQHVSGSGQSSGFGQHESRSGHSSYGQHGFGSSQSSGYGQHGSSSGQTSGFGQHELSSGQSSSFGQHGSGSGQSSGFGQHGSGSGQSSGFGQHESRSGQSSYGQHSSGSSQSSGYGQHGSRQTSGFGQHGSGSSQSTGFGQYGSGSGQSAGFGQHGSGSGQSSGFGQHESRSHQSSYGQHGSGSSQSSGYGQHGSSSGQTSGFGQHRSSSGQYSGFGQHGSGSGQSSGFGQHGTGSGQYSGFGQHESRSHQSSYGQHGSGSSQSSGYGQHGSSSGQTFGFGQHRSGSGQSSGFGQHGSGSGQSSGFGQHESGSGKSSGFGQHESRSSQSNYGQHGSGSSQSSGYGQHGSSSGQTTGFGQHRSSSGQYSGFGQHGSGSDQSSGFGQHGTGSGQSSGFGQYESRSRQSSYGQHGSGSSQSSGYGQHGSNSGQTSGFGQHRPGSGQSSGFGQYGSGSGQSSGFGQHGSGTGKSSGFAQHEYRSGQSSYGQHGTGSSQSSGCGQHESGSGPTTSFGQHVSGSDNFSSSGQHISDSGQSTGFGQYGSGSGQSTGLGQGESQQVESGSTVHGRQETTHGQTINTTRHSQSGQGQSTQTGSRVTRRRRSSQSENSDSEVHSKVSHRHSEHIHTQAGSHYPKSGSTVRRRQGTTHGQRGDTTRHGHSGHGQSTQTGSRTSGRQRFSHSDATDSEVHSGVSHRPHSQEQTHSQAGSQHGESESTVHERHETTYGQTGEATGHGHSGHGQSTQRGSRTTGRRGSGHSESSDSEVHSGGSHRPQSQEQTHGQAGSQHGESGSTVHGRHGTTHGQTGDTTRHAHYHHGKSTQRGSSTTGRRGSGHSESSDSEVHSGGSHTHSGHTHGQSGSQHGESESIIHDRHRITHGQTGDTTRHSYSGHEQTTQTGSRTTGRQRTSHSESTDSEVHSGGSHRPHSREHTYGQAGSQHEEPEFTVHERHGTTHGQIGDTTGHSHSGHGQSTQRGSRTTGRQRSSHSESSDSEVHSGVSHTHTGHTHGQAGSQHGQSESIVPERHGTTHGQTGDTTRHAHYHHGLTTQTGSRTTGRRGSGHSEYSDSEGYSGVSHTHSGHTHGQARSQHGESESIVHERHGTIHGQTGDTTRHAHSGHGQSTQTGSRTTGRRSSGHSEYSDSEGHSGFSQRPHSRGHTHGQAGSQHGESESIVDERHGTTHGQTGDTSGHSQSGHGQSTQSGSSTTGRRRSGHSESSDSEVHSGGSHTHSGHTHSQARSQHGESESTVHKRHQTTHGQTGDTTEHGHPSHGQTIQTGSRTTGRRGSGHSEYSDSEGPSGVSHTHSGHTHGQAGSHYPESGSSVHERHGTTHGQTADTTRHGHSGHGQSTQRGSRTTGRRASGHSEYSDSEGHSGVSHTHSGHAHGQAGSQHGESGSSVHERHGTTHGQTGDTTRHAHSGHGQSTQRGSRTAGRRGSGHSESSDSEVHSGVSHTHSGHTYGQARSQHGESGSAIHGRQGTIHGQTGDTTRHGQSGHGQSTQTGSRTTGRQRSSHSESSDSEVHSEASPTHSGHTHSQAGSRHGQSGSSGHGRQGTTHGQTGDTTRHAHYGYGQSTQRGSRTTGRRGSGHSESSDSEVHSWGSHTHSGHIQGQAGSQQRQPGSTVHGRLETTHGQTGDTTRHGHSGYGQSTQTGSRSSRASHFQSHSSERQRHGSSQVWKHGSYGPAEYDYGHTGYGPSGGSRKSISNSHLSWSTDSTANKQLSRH
Experimental: as §1, §2, §3

[12] = target: T4, Heat shock cognate 71 kDa protein; test: as above
T4 sequence (P11142 2-646 limits assumed): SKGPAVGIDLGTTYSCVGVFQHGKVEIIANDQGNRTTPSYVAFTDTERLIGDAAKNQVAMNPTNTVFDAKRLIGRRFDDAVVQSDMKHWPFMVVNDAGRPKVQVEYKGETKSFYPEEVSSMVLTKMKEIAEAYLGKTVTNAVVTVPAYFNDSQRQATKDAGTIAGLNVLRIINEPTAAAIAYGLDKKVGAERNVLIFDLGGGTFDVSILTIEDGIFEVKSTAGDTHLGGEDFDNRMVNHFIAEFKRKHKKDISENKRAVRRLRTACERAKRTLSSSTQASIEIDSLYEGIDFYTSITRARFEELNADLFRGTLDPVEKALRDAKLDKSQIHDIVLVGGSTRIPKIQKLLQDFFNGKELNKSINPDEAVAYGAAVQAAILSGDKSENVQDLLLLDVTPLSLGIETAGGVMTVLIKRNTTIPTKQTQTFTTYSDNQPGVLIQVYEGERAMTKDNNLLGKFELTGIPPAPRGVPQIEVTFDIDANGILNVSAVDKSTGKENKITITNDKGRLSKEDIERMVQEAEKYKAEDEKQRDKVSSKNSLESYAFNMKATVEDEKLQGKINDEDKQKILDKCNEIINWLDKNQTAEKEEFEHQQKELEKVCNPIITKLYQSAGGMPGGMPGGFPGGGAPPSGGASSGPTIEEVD
Experimental: as §1, §2, §3

[13] = target: T5, Heat shock protein HSP 90-alpha; test: as above
Experimental: as §1, §2, §3

Hornerin [14] = target: T6, Hornerin; test: as above
Experimental: as §1, §2, §3

B1: Fc-LPD (lysyl oxidase prodomain fused to Fc antibody fragment) (Fc fusion)
chain: [human IgG1 Fc and a few adjoining residues cut from this listing]ASGAGSTTENLYFQGGSAPPAAGQQQPPREPPAAPGAWRQQIQWENNGQVFSLLSLGSQYQPQRRRDPGAAVPGAANASAQQPRTPILLIRDNRTAAARTRTAGSSGVTAGRPRPTARHWFQAGYSTSRAREAGASRAENQTAPGEVPALSNLRPPSRVDGMVGD
modifications: N-glycans detected by MS at N346, N362 and N409 (N81, N97, N144 of LOX) and at one further site in the Fc region
notes: Expressed in HEK293-6E cells from pYD5 and purified on protein A; expressed as a dimer of about 95 kDa; The preparation is a mixture of glycoforms (45 kDa and 60 kDa bands); also called anti-LOX
Ratio Fc-LPD:Fc [1]: 1.2 | Ratio Fc-LPD:Fc [2]: 14.1 | Ratio Fc-LPD:Fc (Filaggrin-2 [3]): 1 | Ratio Fc-LPD:Fc [4]: 1.2 | Ratio Fc-LPD:Fc [5]: 0.7 | Ratio Fc-LPD:Fc (Hornerin [6]): 1.3 | Ratio Fc-LPD:Fc [7]: 1.8 | Kd [8]: 32.4 nM | Ratio Fc-LPD:Fc-LPDN346, 409, 456Q [9]: 0.6 | Ratio Fc-LPD:Fc-LPDN346, 409, 456Q [10]: 0.4 | Ratio Fc-LPD:Fc-LPDN346, 409, 456Q (Filaggrin-2 [11]): 55.7 | Ratio Fc-LPD:Fc-LPDN346, 409, 456Q [12]: 1.4 | Ratio Fc-LPD:Fc-LPDN346, 409, 456Q [13]: 2.9 | Ratio Fc-LPD:Fc-LPDN346, 409, 456Q (Hornerin [14]): 6.7
